Laboratory results from US8334315B2, “Substituted aromatic carboxamide and urea derivatives as vanilloid receptor ligands” (Gruenenthal GmbH, priority 2009, dated 2012).
For some assays here: At least one read-out could not be matched to a standard name with certainty. For some assays here: At least one compound was matched to its structure with a doubt left.

Key:
[1] = biological target: T1, rat-species vanilloid receptor 1 (VR1/TRPV1) (Rattus norvegicus, UniProt O35433); experiment: Functional testing on the vanilloid receptor 1, FLIPR Ca2+ influx in rat DRG cells, capsaicin; format: cell-based; design: key: AG=agonist; pAG=partial agonist; NE=no effect
T1 construct: endogenous in cells; host or cells: primary cells dissociated from rat dorsal root ganglia (DRG), cultured 2-3 days with NGF
T1 sequence (O35433 whole entry): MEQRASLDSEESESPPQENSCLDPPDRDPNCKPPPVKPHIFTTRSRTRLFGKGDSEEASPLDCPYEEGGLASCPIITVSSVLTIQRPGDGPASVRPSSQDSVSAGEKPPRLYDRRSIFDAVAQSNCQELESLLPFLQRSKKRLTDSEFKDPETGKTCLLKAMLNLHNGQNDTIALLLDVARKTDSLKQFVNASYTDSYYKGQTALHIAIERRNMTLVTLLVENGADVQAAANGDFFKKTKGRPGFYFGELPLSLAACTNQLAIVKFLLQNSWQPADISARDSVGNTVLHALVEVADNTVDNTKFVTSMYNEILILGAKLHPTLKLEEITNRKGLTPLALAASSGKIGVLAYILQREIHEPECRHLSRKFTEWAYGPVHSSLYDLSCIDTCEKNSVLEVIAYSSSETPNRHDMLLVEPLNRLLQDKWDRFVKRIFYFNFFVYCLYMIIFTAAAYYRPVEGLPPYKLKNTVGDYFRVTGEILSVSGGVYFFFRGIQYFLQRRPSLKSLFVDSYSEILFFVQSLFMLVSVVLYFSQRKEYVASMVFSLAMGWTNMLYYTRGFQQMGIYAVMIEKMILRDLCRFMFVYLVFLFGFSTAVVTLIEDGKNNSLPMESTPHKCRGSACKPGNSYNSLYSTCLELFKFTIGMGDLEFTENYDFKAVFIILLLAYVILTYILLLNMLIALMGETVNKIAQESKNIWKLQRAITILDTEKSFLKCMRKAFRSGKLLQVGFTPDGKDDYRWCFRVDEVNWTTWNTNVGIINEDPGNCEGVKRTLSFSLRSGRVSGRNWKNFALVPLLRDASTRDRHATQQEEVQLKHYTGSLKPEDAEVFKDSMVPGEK
From the text: I. Functional Testing Carried Out on the Vanilloid Receptor 1 (VRI/TRPV1 Receptor)
The agonistic or antagonistic effect of the substances to be tested on the rat-species vanilloid receptor 1 (VR1/TRPV1) can be determined using the following assay. In this assay, the influx of Ca^2+ through the receptor channel is quantified with the aid of a Ca^2+-sensitive dye (type Fluo-4, Molecular Probes Europe BV, Leiden, the Netherlands) in a fluorescent imaging plate reader (FLIPR, Molecular Devices, Sunnyvale, USA).
Complete medium: 50 ml HAMS F12 nutrient mixture (Gibco Invitrogen GmbH, Karlsruhe, Germany) with
10% by volume of FCS (foetal calf serum, Gibco Invitrogen GmbH, Karlsruhe, Germany, heat-inactivated);
2 mM L-glutamine (Sigma, Munich, Germany);
1% by weight of AA solution (antibiotic/antimyotic solution, PAA, Pasching, Austria) and 25 ng/ml NGF medium (2.5 S, Gibco Invitrogen GmbH, Karlsruhe, Germany) […]
The vertebral column is removed from decapitated rats and placed immediately into cold HBSS buffer (Hank's buffered saline solution, Gibco Invitrogen GmbH, Karlsruhe, Germany), i.e. buffer located in an ice bath, mixed with 1% by volume (per cent by volume) of an AA solution (antibiotic/antimyotic solution, PAA, Pasching, Austria). […] The resulting pellet is respectively taken up in 250 μL of complete medium and the cell count is determined. […]

[2] = system: male mice (NMRI); experiment: Formalin test carried out on mice (FTm); format: in vivo; conditions: 1 po, second phase

CC(C(=O)NCc1cc(C(C)(C)C)nn1-c1cccc(Cl)c1)c1ccc2ocnc2c1 (centres unmarked) [Example 40, 2-(benzo[d]oxazol-5-yl)-N-((3-tert-butyl-1-(3-chlorophenyl)-1H-pyrazol-5-yl)methyl)propanamide]
Ki (rat) [nM] Cap: agonist / partial agonist / no effect [1]: pAG | FTm (formalin test, percentage change relative to control) [2]: 1 po FTm 45%
